# Laboratory results taken from PubChem BioAssay AID662 (National Center for Advancing Translational Sciences (NCATS), 2007).
# The campaign covered roughly 71,000 compounds. About 1,800 (2.5%) were called active. The inconclusive results got no clear call from the source; some entries with a clear call stand among them for comparison. The call rests on the fitted dose curve; in most records, active means well fitted activation curve with a large enough effect in the signal ratio, with a control signal flat (not every such curve was filed as active); inconclusive means small, poorly fitted or top-dose-only effect, or effect the other way, or a change in a side signal; inactive means flat fitted curve, though single readings scatter; the % refers to the signal ratio. A potency beside an inconclusive call is a rough fit, not a confirmed value.
# Assay: Cell signaling CRE-BLA (Fsk stim); on activity change, negative = inhibition: % of control where 0% means no effect
# Conditions: CHO CRE-bla reporter (cAMP response element driving beta-lactamase), forskolin EC10, beta-lactamase ratio; activity change, negative = inhibition: at 38.2 µM (top of the series) unless noted
# Summary of the method: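 qHTS titration format; CRE-bla CHO reporter; stimulus EC10 NKH 477, a water-soluble forskolin. Read: CCF4 460/530 nm ratio. Potency expressed as AC50 for activators or inhibitors.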
# Potency means the concentration at half of the fitted maximal effect; tags describe the fitted curve by direction and shape.
SMILES,Potency,"activity change, negative = inhibition"
OCCN(CC(O)Cn1ccc2ccccc21)CC(O)Cn1ccc2ccccc21 (centres undefined),"inconclusive: 10 µM [falling, single point]",–
Cc1ccc(-c2cc(-c3ccccc3)c(C#N)c(N)n2)o1,–,inactive
C=CCn1c(SCC(=O)Nc2c(C)cccc2C)nnc1-c1cnccn1,"inconclusive: 10 µM [rising, partial curve]",–
N#Cc1ccccc1-c1ccc2ncnc(NCCN3CCOCC3)c2c1,"inconclusive: 15.8 µM [rising, partial curve]",–
COCCn1c(=O)c(-c2ccc(OC)cc2)nc2cnc(OC)nc21,active: 10 µM,–
COC(=O)C1CC1C(NC(=O)[C@H]1CCCCN1)c1ccccc1 (some centres undefined),–,inactive
CCCn1c(SCC(=O)Nc2sc(C)c(C)c2C(=O)OCC)nc2c1c(=O)n(C)c(=O)n2C,–,inconclusive: -4.08%
COc1ccc(OC)c(N(CC(=O)Nc2ccc3c(c2)OCO3)S(=O)(=O)c2ccccc2)c1,–,inconclusive: -7.93% [at 7.6 µM]
COC(=O)c1ccc(OC)c(CSc2nnc(COc3ccccc3)o2)c1,–,inconclusive: 22.1%
CC1(C)C(c2ccccc2)=[N+]([O-])CN1O,–,inconclusive: 25.2% [at 7.6 µM]
O=C(NCc1ccccn1)C(F)(F)C(F)(F)C(=O)NCc1ccccn1,"inconclusive: 10 µM [rising, single point]",–
N#Cc1ccsc1NC(=O)COC(=O)CCCSc1nc2ccccc2s1,–,inconclusive: -22%
OC(CN1CCOCC1)Cn1c(-c2cccc(Cl)c2)nc2ccccc21 (centres undefined),–,inactive
CC(=O)Nc1ccc(NC(=O)c2cccc(C(=O)OC(C)C)n2)cc1,–,inconclusive: 2.25%
COC(=O)c1cnn2c3c(c(C)nc12)CCCC3,"inconclusive: 12.6 µM [rising, single point]",–
Cc1sc2nc(CN3CCOCC3)nc(Oc3ccc(NC(=O)c4ccco4)cc3)c2c1C,active: 3.16 µM,–
Fc1ccccc1CSc1ncnc2c1oc1ccccc12,–,inconclusive: -14%
COc1ccc(CNC(=O)C(C)NC(=O)c2cc3ccccc3o2)cc1 (centres undefined),–,inconclusive: -8.62%
CCCc1cc(=O)n2[nH]c(NCc3ccccc3Cl)nc2n1,–,inconclusive: -16.6%
Cc1cccc(CNc2ncncc2-c2ccc3c(c2)OCO3)c1,"inconclusive: 10 µM [rising, partial curve]",–

SMILES,Potency,"activity change, negative = inhibition"
CCCSc1nc2c(cnn2-c2ccccc2)c(=O)[nH]1,–,inactive
O=C(CSc1ncccn1)NCc1ccccc1,–,inconclusive: -5.12% [at 7.6 µM]
Cc1cc(C)nc(SC(C)C(=O)Nc2ccc(S(N)(=O)=O)cc2)n1 (centres undefined),–,inactive
CCCCCC(=O)Nc1cc(N(C)C)nc2ccccc12,–,inconclusive: 18.2% [at 7.6 µM]
Cc1ccc(C)c(N2CCN(C(=O)c3ccc(Cn4c(=O)[nH]c5ccccc5c4=O)cc3)CC2)c1,"inconclusive: 25.1 µM [rising, single point]",–
O=C(CCC(=O)N1CCCC1)Nc1nnc(C2CCCCC2)s1,–,inconclusive: -6.24%
COc1nc(N2CCCC2)nc(-n2cc(-c3ccccc3)nn2)n1,–,inactive
O=C(CSc1nnc(-c2ccccc2)o1)c1ccc2c(c1)OCCO2,–,inactive
COc1cc(NC(=O)c2c(F)cccc2F)nc(OC)n1,"inconclusive: 6.31 µM [rising, partial curve]",–
COCCn1c(=O)c(-c2cccc(F)c2)nc2cncnc21,"inconclusive: 15.8 µM [rising, single point]",–
NC(=O)CSC1=Nc2ccccc2C2=NC(CC(=O)NCc3cccs3)C(=O)N12 (centres undefined),–,inconclusive: 18.1%
CCOc1cc(N2CCOCC2)c(OCC)cc1NC(=O)Cc1cn2ccsc2n1,"inconclusive: 20 µM [rising, single point]",–
CCOC(=O)C1=C(C)NC(C)=C(C(=O)OCC)C1c1nc2ccccc2[nH]1,"inconclusive: 5.01 µM [rising, single point]",–
O=C(NC(Cc1ccccc1)C(=O)O)OCc1ccccc1 (centres undefined),"inconclusive: 0.0251 µM [rising, full curve]",–
Cc1cc(C)c(S(=O)(=O)N(CC(=O)N2CCOCC2)C2CCCCC2)c(C)c1,–,inactive
COc1cc(C(=O)OCn2nnc3ccccc3c2=O)cc(OC)c1OC,active: 6.31 µM,–
Cc1cc2oc(=O)cc(CN3CCN(Cc4ccc5c(c4)OCO5)CC3)c2cc1C,–,inactive
N#Cc1c(-c2ccccc2)nc(N2CCOCC2)[nH]c1=O,–,inconclusive: 5.15%
CCOC(=O)C1=C(CNCc2ccccc2Cl)NC(=O)NC1c1ccc2c(c1)OCO2 (centres undefined),"inconclusive: 10 µM [rising, partial curve]",–
